Our source for the switch fluorescence ratio values is the supplement of paper PMC10126150.

Values marked as one replicate rest on one cluster of the flow cell; about a third of the high ones do not repeat.
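Note: ATP exposure 15 min at 22 °C before imaging.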

The test system of this data set is ATP. Kind of data set: switch fluorescence ratio, 500 uM ATP over buffer (Cy3 cluster intensity, sum of 5 cycles each) (fold (ratio)); higher = stronger signal-on switching upon ATP binding; sequences stand for … in TCGTCGGCAGCGTCAGATGTGTATAAGAGACAGTTTTTTTTTTTTTTTTTTTTTTTTT…TC. The conditions noted are these: aptamer strand: ATP DNA aptamer (quencher-CACCTGGGGGAGTATTGCGGAGGAAGG + anchor), 100 nM annealed; ATP concentration: 500 uM; one replicate. An outline of the steps: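 Imaging in selection buffer was followed by imaging after 15 min with 500 uM ATP at 22 °C, for Cy3-labelled switching-strand clusters annealed to 100 nM quencher-labelled ATP aptamer on a modified Illumina MiSeq flow-cell. Five of these buffer/ATP cycles ran, separated by NaOH stripping and re-annealing. The fluorescence ratio per cluster is summed target-cycle over summed buffer-cycle Cy3 intensity, averaged per switch-domain sequence; clusters outside 100-1000 RFU were removed.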
Turning to CATTTTCACC, the switch fluorescence ratio is 1.02.

For the sequence GATATTAAC, the switch fluorescence ratio came to 0.999.

As to TTACATCAA, the switch fluorescence ratio amounted to 1.07.

On to TGCCGAGCAC, for which the switch fluorescence ratio worked out at 1.56.

In the case of ACACATCAGT, the switch fluorescence ratio turned out to be 1.02.

As for ACATAAGGCG, the switch fluorescence ratio worked out at 1.14.

For the sequence TTTGTGGCAA, the switch fluorescence ratio is 3.45.

For the sequence AGTCAACCTG, the switch fluorescence ratio stood at 1.

For the sequence TGCGGGATAG, the switch fluorescence ratio is 1.07.

Consider TACGCACTAT, for which the switch fluorescence ratio is 1.51.

With TCTTTTGCGA, the switch fluorescence ratio was 1.1.

GGGTTCGAAT: the switch fluorescence ratio came out at 1.02.

For the sequence GTTCGTTACA, the switch fluorescence ratio came to 0.977.

GGCAGAGT: the switch fluorescence ratio came to 0.934.

Consider GTCTTTTTTC, for which the switch fluorescence ratio was found to be 0.959.

Turning to ACCCCTTCAC, the switch fluorescence ratio amounted to 1.3.

On to CATGTCCTGC, for which the switch fluorescence ratio came to 0.971.

Consider ATAGATGACA, for which the switch fluorescence ratio is 1.11.

For the sequence AACAGGCGT, the switch fluorescence ratio came to 1.01.

In the case of GAGAGGGA, the switch fluorescence ratio was 1.08.

On to ACTCGCGTAA, for which the switch fluorescence ratio amounted to 1.39.

On to CACTAAAGAA, for which the switch fluorescence ratio worked out at 1.

For ACGTGATGTG, the switch fluorescence ratio was found to be 1.

Regarding GAGCGTGTTG, the switch fluorescence ratio amounted to 0.961.

Take ACTCCCTTCT: the switch fluorescence ratio came to 1.27.

On to GGTCCAATCC, for which the switch fluorescence ratio is 1.01.

For the sequence ATTAGCATGC, the switch fluorescence ratio was determined as 1.05.

Turning to GATCACTGGG, the switch fluorescence ratio stood at 1.03.

Turning to AGCACCTTGG, the switch fluorescence ratio came to 1.

Take CGACGCCCCG: the switch fluorescence ratio worked out at 1.07.

CAGATTGAAG: the switch fluorescence ratio was determined as 0.979.

Regarding AATACACGCG, the switch fluorescence ratio was found to be 1.05.

For TTCCCAGGAC, the switch fluorescence ratio was 2.

For the sequence AAATGAGTCG, the switch fluorescence ratio was 0.987.

As for ACATGGCTCC, the switch fluorescence ratio came to 1.1.

Regarding TCCGTGAAAT, the switch fluorescence ratio came out at 1.07.

TCAGAGTACT: the switch fluorescence ratio turned out to be 1.06.

Turning to ATCGAAATCA, the switch fluorescence ratio is 1.03.

In the case of GGAAGCTGC, the switch fluorescence ratio amounted to 0.962.

In the case of TCCGTCTTAC, the switch fluorescence ratio was found to be 2.82.

Regarding GAGTAGATGG, the switch fluorescence ratio stood at 1.02.

Turning to CCAGACCACG, the switch fluorescence ratio turned out to be 1.06.

As to TTTGCCCGAC, the switch fluorescence ratio amounted to 1.22.

For the sequence GGGGGTCACC, the switch fluorescence ratio worked out at 0.979.

Regarding TCCTCTGACA, the switch fluorescence ratio came to 3.21.

For CGGCGGGCCG, the switch fluorescence ratio is 0.999.

GTATGAATCA: the switch fluorescence ratio was 0.994.

In the case of TCCTCGAACT, the switch fluorescence ratio stood at 1.16.

AAATAGTTTT: the switch fluorescence ratio came to 0.971.

On to TTGAAACAAT, for which the switch fluorescence ratio stood at 1.04.

Turning to AGCTATATGT, the switch fluorescence ratio turned out to be 1.07.

As to TAAAAATGAT, the switch fluorescence ratio was 1.01.

Take ATCGCTTACT: the switch fluorescence ratio came out at 1.28.

CGACGGAGAG: the switch fluorescence ratio was found to be 1.14.

TGCGTCGCCC: the switch fluorescence ratio is 0.997.

Take CCGTGTCT: the switch fluorescence ratio worked out at 1.04.

CATTCACTGG: the switch fluorescence ratio is 1.01.

As for TCGAAAGGGC, the switch fluorescence ratio stood at 1.

As for TCGGTCTTT, the switch fluorescence ratio was determined as 0.994.

For the sequence GGGAGTTCTG, the switch fluorescence ratio is 0.997.

As to TCCACGTTAA, the switch fluorescence ratio stood at 1.3.

With TAGCAAGGGA, the switch fluorescence ratio was 1.

GATATACTAG: the switch fluorescence ratio was found to be 1.01.

Consider ATTGCGTGGG, for which the switch fluorescence ratio worked out at 1.07.

For the sequence AGAAAACTTT, the switch fluorescence ratio is 1.04.

On to AGTACAAGGA, for which the switch fluorescence ratio came out at 1.01.

Take CATTGTAG: the switch fluorescence ratio was found to be 0.997.

For CGGAGTACTT, the switch fluorescence ratio came to 1.16.

GACTCCACCG: the switch fluorescence ratio is 1.19.

With AGGGCAAGGG, the switch fluorescence ratio was found to be 1.03.

For the sequence TCCAGAGAAC, the switch fluorescence ratio came to 1.01.

For CCATAGGTGT, the switch fluorescence ratio amounted to 2.39.

AATCATAGCC: the switch fluorescence ratio was determined as 0.945.

Consider CTGATGCTGG, for which the switch fluorescence ratio is 1.01.

Take GTATGCTAGA: the switch fluorescence ratio was determined as 0.957.

Take TAACGGGTAT: the switch fluorescence ratio was 0.991.

Take CTGTAACAGT: the switch fluorescence ratio worked out at 1.03.

Take CATTGTTTGC: the switch fluorescence ratio was determined as 1.

Consider AGCGGGTGTC, for which the switch fluorescence ratio is 1.
